Among all 150,000 compounds or so, about 540 (0.36%) showed an effect of 50% or more. Some of the results follow.
The compounds below were run on Plasmodium falciparum (assay: Primary screen in NF54 nanoGlo assay, in single point, at 2uM, 72h; a lower Z score goes with more inhibition). Settings: timepoint 72 hour.
Format: functional, Erythrocyte

Question: `O=C(Nc1nc(C(c2ccccc2)c2ccccc2)cs1)c1ccccc1Cl` was tested. Which “% Inhibition” value did it give?
Answer: The value was -17%.

Question: And the Z score?
Answer: The Z score was 2.93.

Question: Which “% Inhibition” value does the source give for `COc1ccc(S(=O)(=O)N2CCCN(C)c3ccc(F)cc32)cn1` here?
Answer: Its value is 15%.

Question: And the Z score?
Answer: Its Z score is -1.89.

Question: For `CC(=O)N1CCN(C(=O)Nc2ccc3cc[nH]c3c2)CC1`, which “% Inhibition” value is on record?
Answer: The value was -41%.

Question: And the Z score?
Answer: The Z score was 4.78.

Question: Which results are given for `O=S1(=O)CCc2cc(-c3cnn(C(F)(F)F)c3)ccc21`?
Answer: % Inhibition: -2%; Z score: 0.34

Question: `CCOc1cnc(-c2noc([C@@H](C)c3c(C)nn(C)c3C)n2)cn1` was tested. Which “% Inhibition” value did it give?
Answer: Its value is -6%.

Question: What about the Z score of the same compound?
Answer: Its Z score is 0.75.

Question: `CN(C)C(=O)C1CCC(CNC(=O)CN(C)S(=O)(=O)c2ccccc2)O1` (stereo unspecified) was tested. Which “% Inhibition” value did it give?
Answer: Its value is -2%.

Question: What about the Z score of the same compound?
Answer: Its Z score is 0.31.

Question: Which “% Inhibition” value does the source give for `Cc1cc(C(=O)Nc2ccc(F)cc2)nc2ccnn12` here?
Answer: Its value is -2%.

Question: What about the Z score of the same compound?
Answer: The Z score was 0.27.

Question: How did the “% Inhibition” value turn out when `Cc1cc(=O)n(Cc2ccccc2F)c2cc(OCC(=O)N3CCOCC3)ccc12` was run?
Answer: The value was -13%.

Question: What about the Z score of the same compound?
Answer: Its Z score is 1.89.

Question: Which “% Inhibition” value does the source give for `CC1(C)CN(C(=O)c2cnsn2)Cc2cn[nH]c21` here?
Answer: The value was -10%.

Question: And the Z score?
Answer: The Z score was 2.11.

Question: For `CCc1ncc2c(n1)CN(c1ccc3ccccc3n1)C2`, which “% Inhibition” value is on record?
Answer: Its value is -9%.

Question: And the Z score?
Answer: Its Z score is 1.19.

Question: For `COc1cccc(C2CN(C(=O)NC(C)C)CC2C(=O)NCc2ccccn2)c1OC` (stereo unspecified), which “% Inhibition” value is on record?
Answer: The value was -6%.

Question: And the Z score?
Answer: Its Z score is 0.59.

Question: Which results are given for `Cc1noc(C)c1CC(=O)N1CCC=Cc2ccccc21`?
Answer: % Inhibition: 0%; Z score: 0.01

Question: For `C[C@]1(c2ccccc2)CCC(=O)N(Cc2ncc[nH]2)C1`, which “% Inhibition” value is on record?
Answer: Its value is -7%.

Question: And the Z score?
Answer: Its Z score is 1.17.

Question: How did the “% Inhibition” value turn out when `COCC1(O)CN(C(=O)c2oc3c(OC)cc(C)cc3c2C)C1` was run?
Answer: The value was -16%.

Question: What about the Z score of the same compound?
Answer: Its Z score is 2.91.

Question: Which results are given for `CCc1nc(NC(=O)[C@H](C)NC(=O)c2ccoc2)sc1C`?
Answer: % Inhibition: 5%; Z score: -0.94

Question: How did the “% Inhibition” value turn out when `C[C@]1(Cc2cccc3ccccc23)CCCN1Cc1ncccc1C(=O)O` was run?
Answer: Its value is -7%.

Question: What about the Z score of the same compound?
Answer: The Z score was 1.21.

Question: What does the source list for `Cc1ccc(S(=O)(=O)N2CCC[C@H](Oc3ncc(Br)cn3)C2)cc1C`?
Answer: % Inhibition: -9%; Z score: 1.47

Question: Which results are given for `Cc1nn(-c2ncnc3[nH]cnc23)c2c1[C@@H](c1ccccc1)CC(=O)N2`?
Answer: % Inhibition: -2%; Z score: 0.29

Question: How did the “% Inhibition” value turn out when `O=C(Nc1cccc(CCc2ccncc2)c1)c1csc2c1CCCC2` was run?
Answer: Its value is -5%.

Question: And the Z score?
Answer: The Z score was 0.57.

Question: Which results are given for `CN(Cc1ncc[nH]1)C(=O)COc1cc(Cl)c(Cl)cc1Cl`?
Answer: % Inhibition: -3%; Z score: 0.45

Question: Which “% Inhibition” value does the source give for `O=C1N[C@H]2CN(C(=O)c3n[nH]c4c3CCC4)C[C@@H]2OCc2cn(nn2)CCCOc2cc1ccc2Cl` here?
Answer: The value was -11%.

Question: What about the Z score of the same compound?
Answer: Its Z score is 2.03.

Question: For `Cc1ccc(C)c(OCCN(C)C(=O)c2cc3ncc(CCO)cn3n2)c1`, which “% Inhibition” value is on record?
Answer: Its value is -8%.

Question: And the Z score?
Answer: Its Z score is 1.46.

Question: How did the “% Inhibition” value turn out when `CCC(C)(O)Cc1cn(C2CCN(Cc3ccccc3)C2)nn1` (stereo unspecified) was run?
Answer: The value was -16%.

Question: And the Z score?
Answer: The Z score was 2.32.

Question: What does the source list for `CCN(CC)c1nc(N)cc(-c2cccc(C(=O)N3CC(O)C3)c2)n1`?
Answer: % Inhibition: -14%; Z score: 1.41

Question: What does the source list for `CCOC(=O)[C@H]1CCCN(C(=O)c2cnc(-c3ccc(F)cc3)nc2N(C)C(C)C)C1`?
Answer: % Inhibition: -8%; Z score: 1.25

Question: How did the “% Inhibition” value turn out when `O[C@H](COc1ccc2c(c1)OCO2)Cn1nnc(-c2ccccc2)n1` was run?
Answer: Its value is -1%.

Question: What about the Z score of the same compound?
Answer: The Z score was 0.31.

Question: `CN(C)c1ccc(C2NC(=O)NC(O)(C(F)(F)F)C2C(=O)c2ccccc2)cc1` (stereo unspecified) was tested. Which “% Inhibition” value did it give?
Answer: Its value is -21%.

Question: And the Z score?
Answer: Its Z score is 2.78.

Question: For `CCc1cc(NC(=O)C2CN(C(=O)C3CCCCC3)C2)n(C)n1`, which “% Inhibition” value is on record?
Answer: Its value is -13%.

Question: What about the Z score of the same compound?
Answer: The Z score was 2.45.

Question: `Cc1ccc(Cl)cc1NCC(=O)Nc1cccc(C(=O)NC2CC2)c1` was tested. Which “% Inhibition” value did it give?
Answer: The value was 0%.

Question: And the Z score?
Answer: Its Z score is -0.03.

Question: For `CN1CCC(NC(=O)c2c[nH]c3cccc(Br)c23)CC1`, which “% Inhibition” value is on record?
Answer: The value was 5%.

Question: What about the Z score of the same compound?
Answer: Its Z score is -0.66.

Question: With `CNC(=O)[C@@H]1C[C@H](NCc2cc(F)ccc2F)CN1C1Cc2ccccc2C1` as the compound, how does the “% Inhibition” value read?
Answer: The value was 20%.

Question: What about the Z score of the same compound?
Answer: The Z score was -2.5.

Question: Which “% Inhibition” value does the source give for `Cc1ccc2c(c1)C[C@@H](C(=O)NCCc1cn[nH]c1)N2` here?
Answer: The value was -18%.

Question: What about the Z score of the same compound?
Answer: Its Z score is 1.91.

Question: With `COc1ccccc1OCC(=O)Nc1ccc2c(c1)nc(CN1CCOCC1)n2C(C)C` as the compound, how does the “% Inhibition” value read?
Answer: The value was -13%.

Question: And the Z score?
Answer: The Z score was 1.12.

Question: Which “% Inhibition” value does the source give for `CC1CCCCC1OCCNS(=O)(=O)Cc1ccon1` (stereo unspecified) here?
Answer: Its value is -9%.

Question: What about the Z score of the same compound?
Answer: The Z score was 1.11.

Question: What does the source list for `COC1CCCCCC1NC(=O)NC1CCCCC1OC` (stereo unspecified)?
Answer: % Inhibition: -10%; Z score: 1.57

Question: `CCOC(=O)c1cc(C2CC2)nc2c1c(=O)n(Cc1nc(-c3cccc(C)c3)oc1C)c(=O)n2C` was tested. Which “% Inhibition” value did it give?
Answer: Its value is -7%.

Question: What about the Z score of the same compound?
Answer: The Z score was 1.06.

Question: Which results are given for `CC(=O)N1CCC2(CC1)N=C(c1ccc(C)c(C)c1)C[C@@H](c1ccccc1O)N2`?
Answer: % Inhibition: -11%; Z score: 1.2

Question: Which “% Inhibition” value does the source give for `CN(C)C[C@H]1CN(CC(=O)NCCCc2ccccc2)CCO1` here?
Answer: The value was -8%.

Question: What about the Z score of the same compound?
Answer: Its Z score is 1.41.

Question: For `CCN(C(=O)[C@H]1CCCN(C(=O)c2ccoc2)C1)c1ccccc1`, which “% Inhibition” value is on record?
Answer: The value was -11%.

Question: And the Z score?
Answer: The Z score was 1.01.

Question: Which results are given for `N=C1c2ccccc2CN1CC(=O)c1ccc2c(c1)OCCO2`?
Answer: % Inhibition: 0%; Z score: -0.06

Question: How did the “% Inhibition” value turn out when `CC1CN(C)CC1NS(=O)(=O)c1ccc2c(c1)OCCCO2` (stereo unspecified) was run?
Answer: Its value is -1%.

Question: And the Z score?
Answer: The Z score was 0.16.

Question: How did the “% Inhibition” value turn out when `O=C(CN(C1CCCCC1)S(=O)(=O)c1ccccc1)N1CCCCCC1` was run?
Answer: The value was -5%.

Question: What about the Z score of the same compound?
Answer: Its Z score is 0.63.

Question: Which results are given for `CCCCc1nn(CC(=O)N2CCCOCC2)c(=O)n1Cc1ccccc1`?
Answer: % Inhibition: 3%; Z score: -0.27

Question: `CC(=O)Nc1ccc([C@@H](O)[C@H]2COCC(=O)N2CC2CCCCC2)cc1` was tested. Which “% Inhibition” value did it give?
Answer: Its value is 0%.

Question: What about the Z score of the same compound?
Answer: The Z score was 0.04.

Question: With `Cc1ccc(CN2C(=O)NC3(CCCCC3C)C2=O)c(OCC2CCOC2)c1` (stereo unspecified) as the compound, how does the “% Inhibition” value read?
Answer: Its value is 36%.

Question: And the Z score?
Answer: The Z score was -4.91.

Question: Which “% Inhibition” value does the source give for `Cc1cc(CN(C)CC2(CO)CCC2)[nH]n1` here?
Answer: Its value is 2%.

Question: What about the Z score of the same compound?
Answer: The Z score was -0.3.

Question: For `O=C(C1CCC(C(=O)N2CCCc3ccccc32)CC1)N1CCCc2ccccc21` (stereo unspecified), which “% Inhibition” value is on record?
Answer: The value was -7%.

Question: What about the Z score of the same compound?
Answer: The Z score was 0.75.

Question: With `Cc1cc(C)n(CCCNc2nnc(C(C)(C)C)s2)n1` as the compound, how does the “% Inhibition” value read?
Answer: Its value is -11%.

Question: And the Z score?
Answer: Its Z score is 2.04.

Question: How did the “% Inhibition” value turn out when `NC(=O)[C@@H]1Cc2ccccc2N1S(=O)(=O)c1cc(C(=O)O)cc2c1CCC2` was run?
Answer: The value was -16%.

Question: And the Z score?
Answer: Its Z score is 1.74.

Question: For `CN(Cc1cccc(N(C)C)c1)C(=O)c1n[nH]c2c1CCC2`, which “% Inhibition” value is on record?
Answer: Its value is -4%.

Question: What about the Z score of the same compound?
Answer: The Z score was 0.58.

Question: What does the source list for `O=C(NC1CC1)C(c1ccc(F)cc1)N1CCCC1Cn1cccn1` (stereo unspecified)?
Answer: % Inhibition: -4%; Z score: 0.38

Question: What does the source list for `O=S(=O)(NCC1(c2ccc(F)cc2)CC1)c1cccnc1`?
Answer: % Inhibition: -7%; Z score: 1.02

Question: Which “% Inhibition” value does the source give for `CCC(=O)N1CCC(c2nc(C)ccc2C(=O)N(C)C(C)C)CC1` here?
Answer: The value was -8%.

Question: What about the Z score of the same compound?
Answer: Its Z score is 1.22.

Source: ChEMBL document CHEMBL4888484, “Replenishing the malaria drug discovery pipeline: Screening and hit evaluation of the MMV Hit Generation Library 1 (HGL1) against asexual blood stage Plasmodium falciparum ,using a nano luciferase reporter read-out” (2022)
